# Where “and” joins values, the source holds several entries; their conditions need not be identical. Equal values may be shown once. The whole screen tested about 350,000 compounds, of which about 9,900 (2.8%) were called active. The shares of active, inactive and inconclusive entries below differ from those in the screen. The call rests on the fitted dose curve; in most records, active means well fitted activation curve with a large enough effect; inconclusive means small, poorly fitted or top-dose-only effect; inactive means no such curve, though single readings can be large or run the other way. Where the call is inconclusive, the potency comes from a doubtful curve fit.
# Experiment: A quantitative high throughput screen for small molecules that induce DNA re-replication in MCF 10a normal breast cells. Further: nearly all actives have a fitted effect of over 50% in size. On activity, positive = re-replication: % of control where 0% means no effect.
# Conditions: MCF 10A DNA re-replication, Hoechst nuclear intensity, 48 h; activity, positive = re-replication: at 46.1 µM (top of the series)
# Potency means the concentration at half of the fitted maximal effect; tags describe the fitted curve by direction and shape.
Compound,"activity, positive = re-replication",Potency
CC(=O)N1c2ccc(S(=O)(=O)N3CCCCC3)cc2CC1C(=O)NCc1ccccc1C (centres undefined),inactive: -3.49%,
O=C(c1cc(-c2ccco2)on1)N1CCN(C(c2ccccc2)c2ccccc2)CC1,,"inconclusive: 0.562 µM [activator, full curve, poor fit]"
COc1cccc(CN(C)C(=O)CCN(c2ccccc2)S(=O)(=O)c2ccc(C)cc2)c1OC,inactive: -6.03%,
CC1Cc2ccccc2N1C(=O)COC(=O)C1(c2ccccc2F)CCCC1 (centres undefined),,"inconclusive: 2.31 µM [activator, full curve, poor fit]"
Cn1cc(/C=C/C(=O)c2ccccc2)c2ccccc21,,"inconclusive: 23.1 µM [activator, single point]"
CC(C)(C)N1C(=O)Cc2c1nc(N)c1c(N)nc(N3CCCCC3CO)c(C#N)c21 (centres undefined),,active: 14.6 µM
Cc1nc2ccccn2c1C(=O)CSc1cccc(Cl)c1,inactive: 2.08%,
CC(C)n1cc(/C=C2\NC(=O)N(c3cccc(Cl)c3)C2=O)c2ccccc21,,"inconclusive: 18.4 µM [activator, single point]"
CCOc1ccc(S(=O)(=O)NCc2cccs2)cc1C(C)C,,"inconclusive: 25.9 µM [activator, single point]"
C#CCOCCOCCOCCNc1nc(N2CCN(C(=O)CCCCCCCCCCNC(=O)Cn3cc(CCCCCN)nn3)CC2)nc(N2CCN(C(=O)CCCCCCCCCCNC(=O)[C@H]([C@@H](C)CC)n3cc(CCCCN=C(N)N)nn3)CC2)n1,,"inconclusive: 23.1 µM [activator, single point]"
COc1ccc(C(CC(=O)Nc2cc([N+](=O)[O-])ccc2OC)c2ccccc2)cc1 (centres undefined),inactive: 15.7%,
Cc1ccc(NC(=S)NC(=O)C2CCCCC2)c(Br)c1,,"inconclusive: 14.6 µM [activator, partial curve]"
CCCn1nc(NC(=O)c2ccccn2)c2cc3cc(C)ccc3nc21,,"inconclusive: 29.1 µM [activator, single point]"
Cc1ccccc1OCc1nc(-c2ccc(NC(=O)c3ccco3)cc2)no1,,"inconclusive: 20.6 µM [activator, single point]"
Cc1ccc(-c2nnc(N3CCC(C)CC3)c3ccccc23)cc1,,"inconclusive: 18.4 µM [activator, single point]"
Cc1cc(Br)c(OCc2ccc(C(=O)N/N=C/c3ccc[nH]3)cc2)c(Br)c1,,"inconclusive: 2.31 µM [activator, partial curve, poor fit]"
COc1cccc2sc3ccc(C#CC4(N)CCCCC4)cc3c(=O)c12,,"inconclusive: 29.1 µM [activator, single point]"
O=C(Nc1nc(-c2ccc(-c3ccccc3)cc2)cs1)C1=COCCO1,inactive: 7.93%,
CO/N=C/CC(=O)c1cnc(-c2ccc(Cl)cc2)s1,inactive: 4.57%,
COc1cc2ccccc2cc1C(=O)Nc1ccc(O)cc1,inactive: 4.43%,
O=C(CCCc1nc2ccccc2s1)NCc1cccnc1,,"inconclusive: 20.6 µM [activator, partial curve, poor fit]"
CCN(CCCNC(=O)COc1cc(=O)n(C)c2ccccc12)c1cccc(C)c1,,"inconclusive: 23.1 µM [activator, partial curve, poor fit]"

Compound,"activity, positive = re-replication",Potency
CC(=O)Nc1ccc(NC(=O)CSc2nnc3ccc(-c4ccccn4)nn23)cc1,inactive: 0.383%,
Cn1cc(O)nc1NC(=O)Nc1cccc(Cl)c1,inactive: 0.613%,
CC/C(C)=N\Nc1nc(-c2cc3cc(OC)ccc3oc2=O)cs1,,"inconclusive: 20.6 µM [activator, single point]"
CC(C)NC(=O)C1CCN(C2CCN(C(=O)c3cc4c(s3)CCCCC4)CC2)CC1,inactive: 0.755%,
Cc1ccc(C2CC(C(F)F)n3ncc(C(=O)Nc4cnn(Cc5ccccc5C)c4)c3N2)cc1 (centres undefined),,"inconclusive: 29.1 µM [activator, single point]"
COC(=O)c1nc2nc(-c3cccs3)cc(C(F)(F)F)n2n1,inactive: -9.68%,
CCC1(C)CC2(CCCN(CCC(O)(c3ccccc3)c3ccccc3)C2)CCO1 (centres undefined),inactive: -0.282%,
CCCc1nc(SCC(=O)NC2CCCC2)c2ccccc2n1,,"inconclusive: 29.1 µM [activator, single point]"
Fc1ccc(CSc2ccc(-c3ccc4c(c3)OCO4)nn2)cc1,,"inconclusive: 11.6 µM [activator, partial curve, poor fit]"
COCCn1c(C)cc(C2=NNC(=NC3CC3)SC2)c1C,,"inconclusive: 32.6 µM [activator, partial curve, poor fit]"
Cc1cccc(-c2cc3nc(C)c(C)c(NCCCn4ccnc4)n3n2)c1,,"inconclusive: 20.6 µM [activator, partial curve, poor fit]"
CC(Cc1ccccc1)NC(=O)CC(c1ccccc1)c1ccccc1O (centres undefined),inactive: 2.64%,
COc1cc(/C=C2\SC(=S)N(CCCCC(=O)O)C2=O)ccc1OS(=O)(=O)c1ccc(C)cc1,,"inconclusive: 5.8 µM [activator, single point]"
O=C(O)c1ccc(Nc2c3ccccc3nc3ccccc23)cc1,,active: 20.6 µM
Clc1ccc(-c2nnc(-c3ccccc3)c(N3CCSCC3)n2)cc1,,"inconclusive: 11.6 µM [activator, partial curve, poor fit]"
Oc1ccc(O)cc1,,"inconclusive: 16.8 µM [activator, single point] and inconclusive: 7.85 µM [activator, single point]"
CC1=CC(C)(C)N(C(=O)CSc2nnc(-c3ccc(C)cc3)o2)c2ccc(C)cc21,,"inconclusive: 25.9 µM [activator, single point]"
CC(=O)c1cccc(NS(=O)(=O)c2ccc(N/C=C\C(=O)c3ccc(C)cc3)cc2)c1,,"inconclusive: 32.6 µM [activator, partial curve, poor fit]"
Cn1nc(C(C)(C)C)cc1C(=O)Sc1cccc(Br)c1,,"inconclusive: 3.66 µM [activator, full curve, poor fit]"
Cc1ccc(OCC(=O)NNC(=O)c2ccoc2C)c(Br)c1,inactive: -6.32%,
Cc1ccc(-c2n[nH]c(=S)n2C)cc1,inactive: -1.93%,
C=C(c1ccc(OC)cc1)c1ccc(OC)cc1,,"inconclusive: 23.1 µM [activator, partial curve, poor fit]"

# From PubChem BioAssay AID624296 (National Center for Advancing Translational Sciences (NCATS), 2012)
